# Reference: ChEMBL document CHEMBL4888484, “Replenishing the malaria drug discovery pipeline: Screening and hit evaluation of the MMV Hit Generation Library 1 (HGL1) against asexual blood stage Plasmodium falciparum ,using a nano luciferase reporter read-out” (2022)
# The campaign covered roughly 150,000 compounds. About 540 (0.36%) showed an effect of 50% or more. Some of the results follow.
# System: Plasmodium falciparum
# Assay: Primary screen in NF54 nanoGlo assay, in single point, at 2uM, 72h; a lower Z score goes with more inhibition
# Format: functional, Erythrocyte
# Settings: timepoint 72 hour
Compound,% Inhibition [%],Z score
COc1ccc(CC(=O)N2CCN([C@@H](C)c3noc(C)n3)CC2)cc1,4,-0.8
Clc1ccccc1OCC#CCN1CCOCC1,-1,0.12
CC1CN2CCCC2CN1S(=O)(=O)c1cncc(F)c1 (stereo not drawn),-1,0.11
CCC1(c2ccccc2)C(=O)N(C(=O)c2ccc(OC)cc2)C(=O)N(C(=O)c2ccc(OC)cc2)C1=O,-6,0.75
O=c1[nH]c2cc(Cl)c(S(=O)(=O)Nc3ccc(F)cn3)cc2o1,-5,0.85
CCc1nn(C)c(Cl)c1-c1c(C#N)c(N)nc2c1[C@@H]1CC[C@H](C2)N1C,-2,0.36
CCC(N)C(O)c1c(F)cccc1F (stereo not drawn),13,-1.72
O=C(N[C@H]1CCN(c2ccccc2F)C1)c1ccc2oc(=O)[nH]c2c1,-6,0.7
C[C@@H](c1cccnc1)N(C)CCc1cc(Cl)c2c(c1)OCCCO2,3,-0.4
OCCN1CCN(Cc2cccc3c2OCCO3)CC1,-4,0.44
Cc1ccccc1CC(=O)N1CCN(Cc2ccco2)[C@@H]2CS(=O)(=O)C[C@@H]21,-12,2.32
c1nncn1CCN1CCC2(CCCCCC2)C1,-8,1.36
C=CC1CN2CCC1CC2C(O)c1cc[n+](Cc2ccccc2)c2ccccc12 (stereo not drawn),-3,0.52
CC(C)[C@@H](CO)NCCc1cccc(F)c1F,-4,0.59
CCC(=O)N1CC2(C[C@@H](c3nc(-c4ccncc4)no3)N(C)C2)C1,-11,1.33
COc1cccc(NC(=O)N[C@@H](C)Cc2cc3c(c(OC)c2OC)OCO3)c1,3,-0.29
Cc1ncc2c(c1-c1noc(-c3cn[nH]c3)n1)CCNC2,-11,1.04
c1coc(-c2ncc(CN3CCC4(CCCC4)C3)cn2)c1,-3,0.52
O=S(=O)(F)c1ccc(-c2cn(CC3CC(F)(F)C3)nn2)cc1,2,-0.18
O=C(Nc1ccc(-c2noc(=O)[nH]2)cc1)C1=Cc2ccccc2OC1,-6,1.22
Cc1cc(C)n2nc(C)c(C(=O)N[C@H]3COC[C@@H]3N3CCCC3)c2n1,-6,1.15
CN1CCN(Cc2cccc3c2OCO3)[C@@H](CO)C1,-8,1.2
O=C1C2CCCNC2C(=O)N1Cc1ccccc1 (stereo not drawn),-11,1.09
CC(C)N1CCC(N(C)c2ccc3nnc(C(F)(F)F)n3n2)CC1,10,-1.78
